# Experimental data: PubChem BioAssay AID686979 (National Center for Advancing Translational Sciences (NCATS), 2013)
# Values joined by “and” are separate entries in the source; they are usually repeats but may differ in a detail not shown here. Equal entries are not always repeated. The campaign covered roughly 420,000 compounds. About 50,000 (12%) were called active. Inconclusive means that the source gave no clear call. Such entries were picked first, then a sample of the others. Calls come from the whole dose curve; as a rule, active = well fitted inhibition curve with a large enough effect; inconclusive = small, poorly fitted or top-dose-only effect; inactive = flat fitted curve, though single readings scatter. A potency beside an inconclusive call is a rough fit, not a confirmed value.
# Test: qHTS for Inhibitors of human tyrosyl-DNA phosphodiesterase 1 (TDP1): qHTS in cells in presence of CPT; note: nearly all actives have a fitted effect of over 55% in size
# Conditions: chicken DT40 Tdp1-/-;hTDP1 cells + 20 nM CPT, ATP luminescence, 48 h; activity change, negative = growth inhibition: at 46.2 µM (top of the series)
# Outline: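 Chicken DT40 Tdp1-/- cells complemented with human TDP1, 400 cells/well, exposed to compounds plus 20 nM camptothecin for at least 48 h at 37 C; viability read as ATP content by CellTiter-Glo luminescence.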
# % is set by controls: 0 for no effect and ±100 for the full control effect; potency is the fitted concentration of half-maximal effect; tags give direction and shape of the fitted curve.
SMILES,Potency,"activity change, negative = growth inhibition"
COc1cc(C)nc(OCCNC(=O)COc2ccc(Cl)cc2Cl)n1,"inconclusive: 29.1 µM [inhibitor, single point]",
C=CCNc1nc(C(=O)OCC(=O)NCc2cccc(Cl)c2)cs1,inactive,
O=C(NCC1CCCO1)c1cn(-c2ccccc2)nc1-c1ccc(F)cc1 (configuration not stated),inactive,
O=C(C=Cc1ccccc1)c1cccs1,active: 18.4 µM,
CCN(c1ccccc1)S(=O)(=O)c1ccc(C(=O)Nc2nnc(CSC)o2)cc1,"inconclusive: 20.6 µM [inhibitor, single point]",
CCCOc1ccc(C(=O)C(c2ccccc2)N2CCOCC2)cc1 (configuration not stated),"inconclusive: 25.9 µM [inhibitor, single point]",
Cc1cc(NC(=O)C(C)SCC(=O)Nc2ccc(Br)cc2Br)no1 (configuration not stated),"inconclusive: 29.1 µM [inhibitor, single point]",
Oc1ccc(Cc2ccc(Cl)cc2)c(O)c1,"inconclusive: 18.4 µM [inhibitor, single point]",
CSc1nc(C)cc(OCC(=O)N/N=C/c2ccccc2O)n1,active: 2.91 µM,
CCC(=O)N1c2ccc(S(=O)(=O)CCC(=O)NCCC3=CCCCC3)cc2CC1C (configuration not stated),,inconclusive: -31.5% [inhibitor]
O=C(NCCC1CCCCN1S(=O)(=O)c1ccc(F)cc1)C(=O)Nc1ccccc1F (configuration not stated),"inconclusive: 13 µM [inhibitor, partial curve]",
Cc1ccc2oc(C(=O)N(Cc3nccn3C)C(C)C)c(C)c2c1,"inconclusive: 14.6 µM [inhibitor, partial curve, poor fit]",
Cc1onc(-c2ccccc2Cl)c1C(=O)NCc1cccnc1,inactive,
CCCOc1ccc(F)cc1-c1cc(C(=O)NCc2cc(OC)cc(OC)c2)[nH]n1,active: 18.4 µM,
CCOc1ccc(-n2cnc3c(=O)[nH]c(N)nc32)cc1,inactive,
Cc1ccc(S(=O)(=O)N2CCC(C(=O)OCC(=O)N(Cc3ccccc3)C(C)C)CC2)cc1C,inactive,
CCn1c(SCC(=O)NC2CCCC2)nnc1-c1ccccn1,inactive,
CC(CCc1ccccc1)NCC(O)c1cccc([N+](=O)[O-])c1 (configuration not stated),inactive,
N#C/C(=C\c1ccc(OCc2ccc(C(=O)O)cc2)cc1)C(=O)NCc1ccccc1,inactive,
CCSc1nnc(-c2cc3c(s2)-c2ccccc2CC3)o1,"inconclusive: 23.1 µM [inhibitor, partial curve]",
COc1ccc(S(=O)(=O)Nc2ccccc2N2CCOCC2)cc1OC,inactive,
CN1CCC(N(Cc2cccs2)c2ccccc2)CC1,"inconclusive: 33.5 µM [inhibitor, single point]",
COc1ccc(C(CNC(=O)c2cccc(S(=O)(=O)Nc3ccccc3OC)c2)N2CCCCC2)cc1 (configuration not stated),active: 18.4 µM,
CCCN1CCN(C(=O)c2cc(COc3ccc(F)cc3F)on2)CC1,"inconclusive: 29.1 µM [inhibitor, single point]",

SMILES,Potency,"activity change, negative = growth inhibition"
COc1ccc(-c2cc(C(=O)N3CC(C)CC(C)C3)c3ccccc3n2)cc1OC (configuration not stated),"inconclusive: 29.1 µM [inhibitor, single point]",
COCCNC(=S)N/N=C/c1ccc(OCc2ccc(C(=O)OC)cc2)cc1,inactive,
Cc1oc(-c2cccc(Cl)c2)nc1CN1CCC(C(=O)NCc2ccc(F)cc2)CC1,"inconclusive: 29.1 µM [inhibitor, single point]",
CCc1ccc(S(=O)(=O)NCCOc2cccc3cccnc23)cc1,"inconclusive: 25.9 µM [inhibitor, single point]",
CCOc1ccc(N(CC(=O)OC)S(=O)(=O)c2c(C)noc2C)cc1,"inconclusive: 29.1 µM [inhibitor, single point]",
CCN(c1ccccc1)S(=O)(=O)c1ccc2c(c1)OCCO2,active: 16.4 µM,
COc1cc(NC(=O)C(c2ccccc2)c2ccccc2)c(C(=O)O)cc1OC,inactive,
CC(C)c1cc(C(=O)N/N=C/c2ccco2)n[nH]1,inactive,
O=C(Nc1cccc(C(=O)N2CCCc3ccccc32)c1)c1ccccc1,"inconclusive: 29.1 µM [inhibitor, single point]",
CCOC(=O)c1sc(NC(=O)C(CC)Sc2nnc3c4ccccc4n(C(C)C)c3n2)nc1C (configuration not stated),"inconclusive: 16.4 µM [inhibitor, single point]",
CCCCN1C(=O)C(NC(C)=O)c2cc(Br)ccc21 (configuration not stated),"inconclusive: 29.1 µM [inhibitor, single point]",
O=C(NCCc1ccccc1)c1c2c(nc3ccccc13)C(=O)N(C1CCCCC1)C2,active: 11.6 µM,
COc1ccc(NC(=O)C[C@H]2C(=O)N(c3ccc(OC)cc3)C[C@@H]2c2ccc(Br)cc2)cc1,"inconclusive: 25.9 µM [inhibitor, single point]",
Cc1ccc(C)c2c1cc(C)c1nnc(SCC(=O)N3CCCc4ccccc43)n12,"inconclusive: 20.6 µM [inhibitor, single point]",
CCOC(=O)c1ccccc1NC(=O)c1cn(CC)c2nc(C)ccc2c1=O,,inconclusive: -33.1% [inhibitor]
COc1ccc(-c2oc3c(c2C#CCCCCO)C(OCCO)CC3)cc1 (configuration not stated),"inconclusive: 25.9 µM [inhibitor, single point]",
COc1cccc(NC(=O)Cc2ccc(NC(=O)N3CCCCc4ccccc43)cc2)c1,"inconclusive: 25.9 µM [inhibitor, single point]",
CCCN1C(=O)c2[nH]nc(-c3ccc(F)cc3)c2C1c1ccc(O)c(OCC)c1 (configuration not stated),"inconclusive: 23.1 µM [inhibitor, single point]",
CCc1nc2ccc(C(=O)Nc3cc(-c4ccccc4)ccc3OC)cn2c1N(C)C(=O)c1cccc(OC)c1,"inconclusive: 16.4 µM [inhibitor, single point]",
Cc1ccc(NC2CCCN(C(=O)CCN3CCCCO3)C2)cc1C (configuration not stated),inactive,
COc1ccc(C(CNC(=O)c2ccc(Cl)s2)N2CCOCC2)cc1 (configuration not stated),inactive,
CCc1cccc(Nc2c3c(nc4ncnn24)CCC3)c1,"inconclusive: 23.1 µM [inhibitor, single point]",
CC(=O)c1cccc(NC(=O)C2CCN(c3nnc(-n4cccc4)s3)CC2)c1,"inconclusive: 16.4 µM [inhibitor, single point]",
Nc1ccc(N)c([N+](=O)[O-])c1,"inconclusive: 54.5 µM [inhibitor, single point]",

SMILES,Potency,"activity change, negative = growth inhibition"
COCCNC(=S)Nc1ccc(N2CCOCC2)c(S(=O)(=O)Nc2ccc(Cl)cc2)c1,"inconclusive: 29.1 µM [inhibitor, single point]",
O=C(COCCOCCOCC(=O)Nc1c(I)cc(I)c(C(=O)O)c1I)Nc1c(I)cc(I)c(C(=O)O)c1I,inactive,
CCOC(=O)[C@]12CCC=C1N(Cc1cccc3ccccc13)C(=O)[C@H](CC(=O)NCc1ccc(C)o1)C2,active: 16.4 µM,
CCN(CC)C(=O)Oc1cc(=O)n(C)c2ccccc12,inactive,
NC(=O)c1cc2cc(Cl)ccc2oc1=Nc1cccc(C(F)(F)F)c1,"inconclusive: 20.6 µM [inhibitor, single point]",
O=C(N[C@H]1CCC(=O)N([C@H](CSc2ccc(Br)cc2)Cc2ccccc2)CC1)OCc1ccccc1,"inconclusive: 35.5 µM [inhibitor, single point] and inconclusive: 29.1 µM [inhibitor, single point]",
COc1ccc(-c2cc(C(=O)Nc3sc4c(c3C#N)CCCC4)c3ccccc3n2)cc1OC,inactive,
CC(=O)N(C)c1ccc(NC(=O)/C=C/c2ccccc2Cl)cc1,"inconclusive: 16.4 µM [inhibitor, single point]",
Cc1cccc(-c2nc3c4ccccc4n(CC(=O)Nc4cc(F)ccc4F)c(=O)n3n2)c1,inactive,
CN(C)c1ccc(/C=N/NC(=O)CN(c2cccc(Cl)c2)S(C)(=O)=O)cc1Br,active: 25.9 µM,
Cc1ccc(-n2ccnc2SCC(=O)N(CC(C)C)C2CCS(=O)(=O)C2)c(C)c1 (configuration not stated),"inconclusive: 29.1 µM [inhibitor, single point]",
COc1ccc(C2OC3C(CO)OC(n4cnc5c(=O)[nH]c(N)nc54)C3O2)cc1 (configuration not stated),inactive,
CC(C)C[C@@H]1Cc2[nH][nH]c(=O)c2[C@H](c2ccc(Cl)cc2)O1,inactive,
Cc1ccccc1Cn1c(=O)n(CCCCC(=O)NCc2ccc3c(c2)OCO3)c(=O)c2ccccc21,active: 23.1 µM,
CCc1ccccc1N1CC(C(=O)Nc2nccs2)CC1=O (configuration not stated),inactive,
CN(C)Cc1nc2ccccc2c(=O)n1Cc1nc(-c2cc3ccccc3o2)cs1,"inconclusive: 20.6 µM [inhibitor, single point]",
CC1=C(C(=O)Nc2ccccc2)C2(CCCCC2)C(C#N)=C(SCC(N)=O)N1,"inconclusive: 18.4 µM [inhibitor, single point]",
Cc1cc2c(n1-c1ccc(C(=O)NCc3cccc(Br)c3)cc1)CCC(C)C2 (configuration not stated),"inconclusive: 29.1 µM [inhibitor, single point]",
Cc1nc(N)[nH]c(=O)c1CCCNS(=O)(=O)c1ccc([N+](=O)[O-])cc1,inactive,
CCCNC(=O)C1CN(S(=O)(=O)c2ccc(C)cc2)c2ccccc2O1 (configuration not stated),"inconclusive: 29.1 µM [inhibitor, single point]",
CC(=O)c1ccc(NC(=O)C(Cc2ccccc2)NC(=O)c2ccco2)cc1 (configuration not stated),"inconclusive: 22.4 µM [inhibitor, single point]",
CCOc1cc(/C=N/O)ccc1OCc1ccc(C)cc1,"inconclusive: 29.1 µM [inhibitor, partial curve]",
Cc1cc(NC(=O)CCCSc2nc(-c3ccco3)cc(C(F)(F)F)n2)no1,inactive,
CN(N=Nc1nc[nH]c1C(N)=O)C1CCCCC1,,inconclusive: -32.9% [inhibitor]
